Measured values published in the supplement of paper PMC9446081.
About 220 (0.56%) of roughly 39,000 compounds showed activity. The list shows a part of the results.

Each compound was assayed on Escherichia coli K-12 BW25113 (assay: relative growth (OD600 normalised to plate interquartile mean) (fraction); higher = less growth inhibition, active = 0.2 or less). Details: 50 µM; LB; incubation time: overnight (16-24 h).
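Also: static incubation at 37 °C against the wild-type strain, values averaged over two biological replicates.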

Compound	relative growth
COc1ccc(S(=O)(=O)N(C)C[C@@H]2Oc3ccc(NC(=O)C4CC4)cc3C(=O)N([C@@H](C)CO)C[C@@H]2C)cc1	inactive: 1.01
C[C@H](O)C#Cc1cnc2c(c1)C(=O)N([C@@H](C)CO)C[C@H](C)[C@H](CN(C)C(=O)CN1CCOCC1)O2	inactive: 0.996
Cn1cnc(S(=O)(=O)N2CC[C@H](O)[C@@H]2Cc2cnn(C)c2)c1	inactive: 0.996
COc1ccc(NC(=O)N(C)C[C@H]2Oc3ccc(NC(=O)CCCCCC(=O)Nc4ccccc4N)cc3CC(=O)N([C@@H](C)CO)C[C@H]2C)cc1	inactive: 0.959
Cc1ccc(S(=O)(=O)Nc2ccc3c(c2)C(=O)N([C@H](C)CO)C[C@@H](C)[C@H](CN(C)Cc2ccc4c(c2)OCO4)OCCCC[C@H](C)O3)cc1	inactive: 1.02
C[C@H](CO)N1C[C@H](C)[C@@H](CN(C)C(=O)CCC(F)(F)F)OCCCC[C@H](C)Oc2ccc(NS(=O)(=O)c3ccc(Cl)cc3)cc2C1=O	inactive: 0.991
CNC(=O)c1cnn(-c2nc(N)c3ncn([C@@H]4O[C@H](CO)[C@@H](O)[C@H]4O)c3n2)c1	inactive: 0.905
CC(C)CC#Cc1cnc2c(c1)C(=O)N([C@H](C)CO)C[C@@H](C)[C@H](CN(C)S(=O)(=O)c1cccs1)O2	inactive: 1.03
C[C@H](CO)N1C[C@H](C)[C@@H](CN(C)S(=O)(=O)c2ccccc2)Oc2ccc(NC(=O)CCCN(C)C)cc2CC1=O	inactive: 1
COc1ccc(CNC(=O)C[C@@H]2CC[C@H]3[C@@H](COC[C@H](O)CN3S(=O)(=O)c3ccc(OC)cc3)O2)cc1	inactive: 1.02
Cc1noc(C)c1S(=O)(=O)Nc1ccc2c(c1)C(=O)N([C@H](C)CO)C[C@H](C)[C@@H](CN(C)S(=O)(=O)c1c(C)noc1C)O2	inactive: 0.991
C[C@H]1CCCCO[C@H](CN(C)C(=O)c2ccccc2)[C@@H](C)CN([C@@H](C)CO)C(=O)c2cc(NC(=O)Nc3ccc4c(c3)OCO4)ccc2O1	inactive: 1.01
C[C@H]1CN([C@@H](C)CO)C(=O)c2cccc(NS(C)(=O)=O)c2O[C@H]1CN(C)Cc1ccc(C(=O)O)cc1	inactive: 0.989
Cc1ccc(C(=O)Nc2ccc(S(=O)(=O)O)c3cc(S(=O)(=O)O)cc(S(=O)(=O)O)c23)cc1NC(=O)c1cccc(NC(=O)Nc2cccc(C(=O)Nc3cc(C(=O)Nc4ccc(S(=O)(=O)O)c5cc(S(=O)(=O)O)cc(S(=O)(=O)O)c45)ccc3C)c2)c1	inactive: 1.01
COC1(NC(=O)CSCC#N)C(=O)N2C(C(=O)[O-])=C(CSc3nnnn3C)CSC21.[Na+] (stereo not given)	active: 0.0458
